Consider 1 substance from article PMC10320511.

Amino acid sequences for entries named in this document (tags omitted).
UniProt Q01371: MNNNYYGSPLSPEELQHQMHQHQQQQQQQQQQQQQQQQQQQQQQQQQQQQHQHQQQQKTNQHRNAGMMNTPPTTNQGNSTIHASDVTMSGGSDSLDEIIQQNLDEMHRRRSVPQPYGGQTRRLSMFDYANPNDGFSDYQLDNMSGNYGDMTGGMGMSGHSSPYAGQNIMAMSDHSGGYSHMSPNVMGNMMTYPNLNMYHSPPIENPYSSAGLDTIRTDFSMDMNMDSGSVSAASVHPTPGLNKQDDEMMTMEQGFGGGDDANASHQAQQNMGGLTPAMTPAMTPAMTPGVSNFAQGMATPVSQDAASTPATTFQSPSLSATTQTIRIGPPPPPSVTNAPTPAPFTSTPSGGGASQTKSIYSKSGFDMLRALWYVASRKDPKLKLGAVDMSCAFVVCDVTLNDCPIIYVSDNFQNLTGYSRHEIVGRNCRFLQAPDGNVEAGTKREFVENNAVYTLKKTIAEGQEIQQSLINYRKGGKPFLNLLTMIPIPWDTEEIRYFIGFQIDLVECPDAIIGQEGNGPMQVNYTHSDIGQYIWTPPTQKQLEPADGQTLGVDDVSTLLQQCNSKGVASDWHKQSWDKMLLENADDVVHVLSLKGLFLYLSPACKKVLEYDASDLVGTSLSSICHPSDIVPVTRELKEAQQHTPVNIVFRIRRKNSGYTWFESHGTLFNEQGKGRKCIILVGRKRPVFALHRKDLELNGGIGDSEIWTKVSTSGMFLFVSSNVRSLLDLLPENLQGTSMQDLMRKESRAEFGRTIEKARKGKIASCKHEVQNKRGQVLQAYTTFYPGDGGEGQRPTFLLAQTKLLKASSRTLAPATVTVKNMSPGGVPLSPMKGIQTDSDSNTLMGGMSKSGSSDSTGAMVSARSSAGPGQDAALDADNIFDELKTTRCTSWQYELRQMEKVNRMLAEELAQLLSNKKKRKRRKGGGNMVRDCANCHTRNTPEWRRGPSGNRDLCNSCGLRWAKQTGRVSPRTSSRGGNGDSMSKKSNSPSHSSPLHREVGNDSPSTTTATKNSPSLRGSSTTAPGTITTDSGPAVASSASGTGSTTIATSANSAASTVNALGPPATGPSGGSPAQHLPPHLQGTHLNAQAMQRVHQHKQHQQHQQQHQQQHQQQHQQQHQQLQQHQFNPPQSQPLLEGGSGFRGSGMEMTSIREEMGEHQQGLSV

Test [1] concerns the target T1, FRQ D862A, D866A, D867A, D869A, D870A, V5H6-tagged (Neurospora crassa) (UniProt P19970).
T1 sequence: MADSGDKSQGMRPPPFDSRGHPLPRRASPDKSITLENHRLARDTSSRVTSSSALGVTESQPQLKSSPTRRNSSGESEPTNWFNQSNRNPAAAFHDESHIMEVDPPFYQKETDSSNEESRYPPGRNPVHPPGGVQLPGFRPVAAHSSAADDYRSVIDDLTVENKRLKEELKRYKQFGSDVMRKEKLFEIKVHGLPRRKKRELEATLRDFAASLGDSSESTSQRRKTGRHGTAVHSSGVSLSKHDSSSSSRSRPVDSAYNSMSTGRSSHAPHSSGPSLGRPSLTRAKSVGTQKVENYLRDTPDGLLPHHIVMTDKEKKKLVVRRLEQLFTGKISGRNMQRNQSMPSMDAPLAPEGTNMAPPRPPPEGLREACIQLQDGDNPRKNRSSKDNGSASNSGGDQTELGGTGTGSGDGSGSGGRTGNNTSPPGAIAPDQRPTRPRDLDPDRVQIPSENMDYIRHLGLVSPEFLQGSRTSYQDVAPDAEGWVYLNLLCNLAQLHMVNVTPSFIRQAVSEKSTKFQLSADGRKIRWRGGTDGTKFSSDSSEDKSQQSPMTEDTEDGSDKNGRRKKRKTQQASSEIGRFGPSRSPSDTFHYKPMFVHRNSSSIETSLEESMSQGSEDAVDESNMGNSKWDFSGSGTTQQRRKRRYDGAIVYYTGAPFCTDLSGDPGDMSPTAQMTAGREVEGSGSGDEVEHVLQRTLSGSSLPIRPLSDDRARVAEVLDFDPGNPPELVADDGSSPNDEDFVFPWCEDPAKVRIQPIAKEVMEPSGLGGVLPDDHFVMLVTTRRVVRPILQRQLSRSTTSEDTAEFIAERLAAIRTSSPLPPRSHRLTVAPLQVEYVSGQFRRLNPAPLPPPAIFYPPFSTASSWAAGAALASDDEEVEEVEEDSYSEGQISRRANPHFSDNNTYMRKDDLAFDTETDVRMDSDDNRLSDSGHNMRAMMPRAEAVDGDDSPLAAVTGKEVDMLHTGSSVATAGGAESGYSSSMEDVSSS
The test can be described thus: co-IP; V5H6-tagged FRQ (wild type or mutant) pulled down with V5 agarose from Neurospora lysate (cultures in the light, 25 °C); 50 mM Hepes pH 7.4, 137 mM NaCl, 10% glycerol, 0.4% NP-40; 4 °C, 2 h; Western blot with FRQ, FRH, WC-1 and WC-2 antibodies. Background: In western blotting, separated proteins are transferred to a membrane and probed.

Test [2] addresses T2, FRQ Δ874–884, V5H6-tagged (Neurospora crassa) (UniProt P19970).
T2 sequence: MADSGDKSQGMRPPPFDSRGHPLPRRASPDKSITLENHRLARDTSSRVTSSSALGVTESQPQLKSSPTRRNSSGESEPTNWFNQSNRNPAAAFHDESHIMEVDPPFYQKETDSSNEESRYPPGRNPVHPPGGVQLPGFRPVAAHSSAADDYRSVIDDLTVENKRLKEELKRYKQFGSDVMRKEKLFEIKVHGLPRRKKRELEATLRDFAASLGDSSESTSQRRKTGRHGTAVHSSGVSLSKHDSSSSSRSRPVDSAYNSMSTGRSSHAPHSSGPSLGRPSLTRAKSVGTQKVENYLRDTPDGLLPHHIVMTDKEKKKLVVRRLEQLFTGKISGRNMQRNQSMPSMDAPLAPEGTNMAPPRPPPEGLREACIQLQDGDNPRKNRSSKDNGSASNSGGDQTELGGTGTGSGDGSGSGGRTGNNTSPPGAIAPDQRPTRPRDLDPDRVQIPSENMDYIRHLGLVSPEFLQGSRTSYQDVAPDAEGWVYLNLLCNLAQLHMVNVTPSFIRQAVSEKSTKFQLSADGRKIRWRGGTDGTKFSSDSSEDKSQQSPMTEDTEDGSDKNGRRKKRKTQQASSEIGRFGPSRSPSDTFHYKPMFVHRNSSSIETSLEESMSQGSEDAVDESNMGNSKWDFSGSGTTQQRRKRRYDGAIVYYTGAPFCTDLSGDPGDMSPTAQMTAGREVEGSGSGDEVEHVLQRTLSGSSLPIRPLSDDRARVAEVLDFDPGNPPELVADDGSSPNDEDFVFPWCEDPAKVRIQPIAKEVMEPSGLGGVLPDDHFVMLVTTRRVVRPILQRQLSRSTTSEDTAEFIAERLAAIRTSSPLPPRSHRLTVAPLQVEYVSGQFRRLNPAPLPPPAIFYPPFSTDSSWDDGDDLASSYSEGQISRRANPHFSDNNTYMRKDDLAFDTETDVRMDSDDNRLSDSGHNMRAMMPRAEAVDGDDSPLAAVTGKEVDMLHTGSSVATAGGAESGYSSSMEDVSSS
Described as above.

Results are given in words; binding and its absence hold for the method and conditions named. In cells and extracts the contact can be indirect. Some entries that bind do so weakly or less than the wild type. Sequences can lack the tags named with a protein.

As for “White Collar-1 (WC-1) (from UniProt Q01371 1-1167)”, the binding result in test [1] is listed as “binds weakly”; in test [2], “binds”.
